# Some of the results follow.
# B1: chrX:20249591:20249592:+_ENSMUSG00000001924_ENSMUST00000001989|mus_mus|FALSE|FALSE (ssRNA)
# RNA: GGGAGUUCUACAGUCCGACGAUCCACCAGGAAGUACUUUUGCUUGCUCAGCUUCUCCUGAAAGUCUGACCCAAAUACAGCUACCUGCCCAUCGUAACGGUUCUGACGUGGGAGGCACUUCUCCUCUGUCAGAGCCUCUUUGUCCAACAGAGGAUUGAGCAUCA
# B2: chr7:149068622:149068623:-_ENSMUSG00000025139_ENSMUST00000001950|mus_hu|mus_mus_mus_hu_False|1_1 (ssRNA)
# RNA: GGGAGUUCUACAGUCCGACGAUCGUGAGGCCUCUGAGUGUGGCUUGUGGUCUGUCCUGGGUUAGAGUUGUUAAUAUCACGGAACAUACCAUCUAGAACGUUCCAGUCCCGCCUGACACCUUCAUUCCCAAUGGAGAAUCUGCUCAACAGAGGAUUGAGCAUCA
# B3: chr11:54532201:54532202:-_ENSMUSG00000052298_ENSMUST00000064104|mus_hu|FALSE|FALSE (ssRNA)
# RNA: GGGAGUUCUACAGUCCGACGAUCUAGGAUUUAAACAAACAUUUUAAUGAGAACACAAACCACUGACUCUGGCUUAACACCACACUCUAACAGAAAAGAAGAAACCUUUACAGAAAUAUUUGAAAUAUACAAAAUUCGUGCAAGCAACAGAGGAUUGAGCAUCA
# B4: chr14:89343726:89343727:+_ENSG00000165533_ENST00000346301|hu_mus|FALSE|FALSE (ssRNA)
# RNA: GGGAGUUCUACAGUCCGACGAUCGCACUCAGUGCGUUUUCUUCCCUGUGCGCUGGCCCUCCGUGAAGGCUUAUGUGGCCCAAGCACUGAUCAGAGCAUAGCAAAGUGCUGCUUCAGCUGCUUAAUUAAGUGCUGUGUGUCCACCAACAGAGGAUUGAGCAUCA
# B5: 68531005_68534383_798_CDS_ENSG00000033178_ENST00000322244|human|control|control (ssRNA)
# RNA: GGGAGUUCUACAGUCCGACGAUCUAUCACCGUUAUUUGUUGUAUAGAUCCAUUUAAACCUGUCAUUCCAUUAAUUUCUCGAAAUGUUAGGAAUUGUCCUGUCUCCAGUUUGUGAGGAUGAUUUUCAAGGCAAGUAACAAUGCCCAACAGAGGAUUGAGCAUCA
# B6: chr22:42033747:42033748:+_ENSG00000196419_ENST00000405878|hu_hu|motif|central (ssRNA)
# RNA: GGGAGUUCUACAGUCCGACGAUCCAGGUCUUCUAGCUUGCUGGAUUCCUCAAAGUGAACCCUGAGGUCCUCAUCCUCUGCGGUGCUGAUGAUAUCUCUGUAGAACAAGGAUAUGUCAAAGCCCCCAGGUUUCUUCAGGUGCAUCAACAGAGGAUUGAGCAUCA
# B7: chr4:76721835:76721836:+_ENSG00000138768_ENST00000264904|hu_mus|hu_hu_hu_mus_True|78_108 (ssRNA)
# RNA: GGGAGUUCUACAGUCCGACGAUCGUUGGCUGGGGUUUUCUGAGACGCUCUGGAAUAAACUCAUGUUUUGCUAAUAAAUCCUAGUUUCUCUAUGAAAUUCUCUUUGCCAAUCCUCUUCUCUAUUAGUUGCUUUAGUUUCUCUUUCAACAGAGGAUUGAGCAUCA
# B8: chr8:40069188:40069189:+_ENSMUSG00000039530_ENSMUST00000167992|mus_mus|motif|central (ssRNA)
# RNA: GGGAGUUCUACAGUCCGACGAUCCUUCUGUCCGCCCCCGAGCUGGAUGCAGAGCAGCAGCAGCAAGAGGAGGAAGGGAAAGCGGCCAGUAGGCAGGUAGCGCAACCGGCGGCCCGCCUGUCUCCGGCGUGAAGGAGCGGCCCUCAACAGAGGAUUGAGCAUCA
# B9: chr3:179287964:179287965:+_ENSG00000136518_ENST00000429709|hu_hu|hu_hu_hu_mus_True|1_18 (ssRNA)
# RNA: GGGAGUUCUACAGUCCGACGAUCCUUGAGUGGUGAGAUGGCCUCCAUGUUCUCCCUGGGCACGCGGAGGGCAUUGGUGUCUAUGUAGUAGGUGGGCCCGCCCUGCUUGCCUUUGUCGCCAUCUAUUUCCAUCAUUGUGCUUCCCAACAGAGGAUUGAGCAUCA
# B10: chr1:94953452:94953453:+_ENSG00000117528_ENST00000370214|hu_hu|motif|central (ssRNA)
# RNA: GGGAGUUCUACAGUCCGACGAUCUUCUGUAAUCCGAGCAGUAAAACCGGCCAAUCUAGUCAUUUCACGCCCAGCCAAAACGGUUCGACCCAGAGCUUGAGACAUUCGCAAAAGCAUUCUUCCACUUUGGUAGUAAUCCUCUAGCAACAGAGGAUUGAGCAUCA
# B11: chr10:20037848:20037849:+_ENSMUSG00000037608_ENSMUST00000043881|mus_mus|FALSE|FALSE (ssRNA)
# RNA: GGGAGUUCUACAGUCCGACGAUCUCAGUGAUGUCUUUGAGACACUACCAAGAUUCUUCUUGUAGAAAAUGUUAUGGGAAACUAAACUCUAAAUUCAAAUACCUGACACGCCGAAGCACGAUGUGCGUGCAGGGUUUACCUCCGCAACAGAGGAUUGAGCAUCA
# B12: chr2:144966258:144966259:-_ENSG00000121964_ENST00000344850|hu_hu|motif|central (ssRNA)
# RNA: GGGAGUUCUACAGUCCGACGAUCUGUCCGGGCUCUCCAAUGCCAUUUCUUUGCAGGAAGGGUAUAAACGACACAGUCUCCGGACUCUUCUUGAAGAAGAUCCACCAGCUGUUUAUGGGAGCCUCCAUAGAAUGCUUCAAUGAUCAACAGAGGAUUGAGCAUCA
# B13: 43693971_43694091_1071_3pUTR_ENSMUSG00000078716_ENSMUST00000107866|mouse|control|control (ssRNA)
# RNA: GGGAGUUCUACAGUCCGACGAUCAAGGCCAACUCCAGCUGGCAUACUGAGGCACCUCCACAGGCCACAGAGCUUGAGUUGUGUAGGGGUGGAGCCUUGGGACGUAGGCGCAGUGUCAGGGGACAGACAGAUGCCCCUCGACCCCAACAGAGGAUUGAGCAUCA
# B14: chr13:56191178:56191179:-_ENSMUSG00000015937_ENSMUST00000016081|mus_hu|motif|central (ssRNA)
# RNA: GGGAGUUCUACAGUCCGACGAUCUUUAAGGUCAAUGUCAGCAUUGGUAGGAUUGAUUAUGGCCUCCACCUCAAAGCCGGCGGAAUUACUGAUUUCACUGUGAAUAAGGUUCAGCUUCUGGCCAAGGAAGAGGCUCUUGGUGGACAACAGAGGAUUGAGCAUCA
# B15: chr18:25268621:25268622:+_ENSMUSG00000034295_ENSMUST00000037097|mus_hu|FALSE|FALSE (ssRNA)
# RNA: GGGAGUUCUACAGUCCGACGAUCGCUGAUGGAGGACAGGGUGAGGAGGAACUGCUCUGCACUGCCCAGGGGGAUUUCAGGGUUGGCCAGCUGAGCUUCCUGGAUUUUCUGCUUCUCCUCAUCGGUGGGAAUCAUCGUUAGAAUCAACAGAGGAUUGAGCAUCA
# B16: chr3:9412954:9412955:+_ENSG00000134077_ENST00000452837|hu_mus|hu_hu_hu_mus_False|18_38 (ssRNA)
# RNA: GGGAGUUCUACAGUCCGACGAUCGGUUGAUAUCUCUUCUUUGAUGGCUGGAUUUUCAUAAUAGUCCAAGAUAUGUGAAUCUGAAGUGCUGCUGGCAAACUCUUUUUUACCAUCUUUCUGAUCGAUUUUGUCUCCUUGUCCACACAACAGAGGAUUGAGCAUCA
# B17: chr18:77180173:77180174:+_ENSMUSG00000090000_ENSMUST00000026487|mus_mus|motif|central (ssRNA)
# RNA: GGGAGUUCUACAGUCCGACGAUCGAUAUAAACUGAACAACAGUAUUAUGAGAUGAGCCAAGAACACCACAAAGCUGGUCGGAGACAUAAGACAGACGAACAAACGAAAGCUACUUAGAAUCAACAACCUACCUACAGACAGAACAACAGAGGAUUGAGCAUCA
# B18: chr9:57762402:57762403:+_ENSMUSG00000055720_ENSMUST00000163329|mus_mus|FALSE|FALSE (ssRNA)
# RNA: GGGAGUUCUACAGUCCGACGAUCCCAAGAUUUUCGGAGAACAUGGACUGUGGAUCCAGGCUGAAUACCAUAGAAGUCAAGGGUCUGGUCAUCUUUUAGCUUCCGGCCACAGUAGAUCAAAUCGAUCAGCUCCGGGUCUGGAACCAACAGAGGAUUGAGCAUCA
# B19: chr11:87793130:87793131:-_ENSMUSG00000020483_ENSMUST00000020775|mus_mus|FALSE|FALSE (ssRNA)
# RNA: GGGAGUUCUACAGUCCGACGAUCAGAGCAUAGAUGUGGCAGGGUCUCAGUCACUGCACCAGAAAUGAGAGAUGAACAAAAACGAGACACUUCCAACUGGCCAGAGUCUGGGAGGGCAGGGAAACACAGAUCUGGACAUUCAUACAACAGAGGAUUGAGCAUCA
# B20: chr2:202488911:202488912:-_ENSG00000155755_ENST00000286196|hu_mus|hu_hu_hu_mus_False|38_88 (ssRNA)
# RNA: GGGAGUUCUACAGUCCGACGAUCAUUGAAACAUUUUUCAUAAUCUCAGAGAUGUUUUCAGCAUUAUGUAACAAAAGCUCAAUUGUAAAUACAUGUAUAUACAUCUUAUACACUUAAAAACACGAGUGGGGAGCGCAGGCGCCACAACAGAGGAUUGAGCAUCA
# B21: chr10:7461220:7461221:+_ENSMUSG00000019794_ENSMUST00000165806|mus_mus|FALSE|FALSE (ssRNA)
# RNA: GGGAGUUCUACAGUCCGACGAUCGACUUCUCCUUCAGCAGCUGGAAAUUCAUGUUGUGCAGCUUGCAAAGAAGUGAUGUCUAGUUUGAAGCUCUCGAGUGUUUUCAUGAUAUCCUUAACUUGCUUAGCUUCCACAUUUAUUUCCAACAGAGGAUUGAGCAUCA
# B22: chr8:90938390:90938391:+_ENSG00000164823_ENST00000451899|hu_mus|FALSE|FALSE (ssRNA)
# RNA: GGGAGUUCUACAGUCCGACGAUCAUCAAGUACCUAUCUGUCAAAAUCUCAACUUGUAAAAAUAUUUUUAAUGACCAUCAUAUUUGAUAAUAAAUUAGGUUUAUAUAACUGAUAGUUUCAAAAUAAAUAAAACCUGAGUUGCAACAACAGAGGAUUGAGCAUCA
# Biological target: T1, UNK ZnF1-3 (human, UniProt Q9C0B0 31-174)
# T1 sequence: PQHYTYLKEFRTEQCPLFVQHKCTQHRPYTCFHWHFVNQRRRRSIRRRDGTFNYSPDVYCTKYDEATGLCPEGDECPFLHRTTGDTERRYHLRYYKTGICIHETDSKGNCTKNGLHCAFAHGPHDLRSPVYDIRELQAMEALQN
# Experiment: nsRBNS (natural sequence RNA bind-n-seq); RBNS binding buffer (assumed for nsRBNS): 25 mM Tris pH 7.5, 150 mM KCl, 3 mM MgCl2, 0.01% Triton X-100, 500 ug/ml BSA, 20 U/ml SUPERase-In, 4 C; UNK is unkempt and MSI1 is Musashi-1; names of the RNAs are library labels; protein concentration not given here; high values mean tight binding
row,Binder,binding signal [enrichment R]
1,B1,0.681
2,B2,0.78
3,B3,1.72
4,B4,0.845
5,B5,0.918
6,B6,0.66
7,B7,0.402
8,B8,0.867
9,B9,0.529
10,B10,0.959
11,B11,0.728
12,B12,0.77
13,B13,1.58
14,B14,1.03
15,B15,0.876
16,B16,0.506
17,B17,2.02
18,B18,0.867
19,B19,1.91
20,B20,0.712
21,B21,0.645
22,B22,0.855

# — publication PMC12136788
